The values that follow come from paper PMC6919601, “Identification of Plasmodium dipeptidyl aminopeptidase allosteric inhibitors by high throughput screening” (PLoS ONE, 2019).

Each structure is given as a SMILES string. In all, about 110,000 compounds went through this assay and about 230 (0.21%) showed an effect of 50% or more. The list shows a part of the results.
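Further: 30 min substrate incubation versus DMSO and 10 µM JCP410 controls.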

In the assay the target is DPAP1 (Plasmodium falciparum, UniProt Q8IIJ9). Description: primary screen, percent inhibition; read by cleavage of a fluorogenic dipeptide substrate; higher = more effect of the substance. More on the design: species or system P. falciparum D10 trophozoite lysates; single well.
Sequence of DPAP1 (Q8IIJ9 whole entry, looked up): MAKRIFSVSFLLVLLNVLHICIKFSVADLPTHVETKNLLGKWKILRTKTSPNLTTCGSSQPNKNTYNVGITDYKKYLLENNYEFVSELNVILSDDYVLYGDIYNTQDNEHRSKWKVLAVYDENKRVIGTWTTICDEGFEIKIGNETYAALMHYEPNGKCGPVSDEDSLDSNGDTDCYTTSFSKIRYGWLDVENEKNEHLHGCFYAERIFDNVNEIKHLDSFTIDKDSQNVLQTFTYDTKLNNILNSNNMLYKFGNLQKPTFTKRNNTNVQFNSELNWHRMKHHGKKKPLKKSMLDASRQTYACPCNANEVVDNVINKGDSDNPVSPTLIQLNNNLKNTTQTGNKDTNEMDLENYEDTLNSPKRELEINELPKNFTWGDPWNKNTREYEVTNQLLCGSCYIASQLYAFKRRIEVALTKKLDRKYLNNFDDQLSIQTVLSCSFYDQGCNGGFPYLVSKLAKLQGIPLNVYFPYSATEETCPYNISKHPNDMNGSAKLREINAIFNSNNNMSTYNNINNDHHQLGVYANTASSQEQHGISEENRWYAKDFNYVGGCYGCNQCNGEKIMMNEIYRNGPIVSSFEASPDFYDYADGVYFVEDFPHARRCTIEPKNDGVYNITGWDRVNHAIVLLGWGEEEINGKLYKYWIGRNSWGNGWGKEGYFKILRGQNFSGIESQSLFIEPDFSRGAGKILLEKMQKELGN
In the case of `CC(C)c1ccc(S(=O)(=O)Nc2ccc(O)c(Br)c2)cc1`, the “% Inhibition @ 10 uM” value was 2.53%.
For `O=C(CCCCn1c(=O)[nH]c2ccsc2c1=O)NCc1ccc(Cl)cc1` the value was -7.33%; for `O=C(N/C(=C\c1ccccc1)C(=O)N1CCCCC1)c1ccco1`, 2.08%.
On to `O=C(Nc1cccc2c1CCCC2)c1ccc(Br)o1`, for which the “% Inhibition @ 10 uM” value was -0.795%.
For `CCN1C(=O)S/C(=C/c2ccc(OC)c(C)c2OC)C1=O` the value was -0.116%; for `CC(=O)c1ccc(NC(=O)C(C)c2cccc(C(=O)c3ccccc3)c2)cc1` (stereo not drawn), -1.52%; for `COc1ccc(N2C(=O)CC(NCCOC34CC5CC(CC(C5)C3)C4)C2=O)cc1` (stereo not drawn), -1.07%.
Regarding `Cc1ccc2nc(NC(C)C(=O)O)nc(-c3ccccc3)c2c1` (stereo not drawn), the “% Inhibition @ 10 uM” value turned out to be 2.38%.
Take `O=C(O)CCNc1cc(C(=O)O)ccc1C(=O)O`: the “% Inhibition @ 10 uM” value is 1.42%.
Turning to `CCOc1ccc(C2NCCc3cc(OCC)c(OC)cc32)cc1` (stereo not drawn), the “% Inhibition @ 10 uM” value is reported as -0.891%.
Regarding `Cc1ccc(-c2noc(CCC(=O)NCCN3CCOCC3)n2)cc1`, the “% Inhibition @ 10 uM” value amounted to 3.51%.
For `COCCCNc1ncnc2c1cnn2-c1ccc(Cl)cc1` the value was 5.84%; for `Fc1ccc(N2CCN(Cc3ccccc3Cl)CC2)cc1`, 1.55%; for `Cc1cc(C)c(NS(=O)(=O)c2nc3nc(C)cc(C)n3n2)c(Cl)n1`, -5.48%.
Take `COc1ccc2nc3sc(C(=O)N4CC(C)CC(C)C4)cc3cc2c1` (stereo not drawn): the “% Inhibition @ 10 uM” value was -5.67%.
Regarding `COc1ccc(C(=O)N2CCC(C(=O)Nc3c(F)cccc3F)CC2)cc1OC`, the “% Inhibition @ 10 uM” value is on record as 4.08%.
For `CCOc1cc(Cl)c(C(C)NC(=O)c2cccnc2)cc1OCC` (stereo not drawn), the “% Inhibition @ 10 uM” value is -3.09%.
For `Cn1nc(C(=O)N2CCc3ccccc3C2)c2c1-c1ccccc1S(=O)(=O)C2` the value was 10%; for `O=C(Cn1cc(S(=O)(=O)N2CCCC2)c(S(=O)(=O)N2CCCC2)c1)N1CCOCC1`, -6.07%; for `Cc1ccc(NC(=O)CN2C(=O)N/C(=C/c3cn(C(C)C)c4ccccc34)C2=O)cc1`, -2.19%.
`O=C(Nc1sc2c(c1C(=O)NC1CCS(=O)(=O)C1)CCCC2)c1ccco1` (stereo not drawn): the “% Inhibition @ 10 uM” value is 0.161%.
The same measure for `N#Cc1ccc(NC(=O)c2ccc(Cl)cc2)cc1`: 0.475%; for `O=c1cccc2n1C[C@H]1C[C@@H]2CN(Cc2cc(Cl)cc(Cl)c2O)C1`: -0.342%.
In the case of `O=C(NCCCN1CCCC1=O)c1ccc(Cn2c(SCc3ccccc3)nc3cccnc32)cc1`, the “% Inhibition @ 10 uM” value is recorded as 1.63%.
For `CCOc1ccc2oc(=O)cc(CN(Cc3ccco3)C3CCCC3)c2c1` the value was 0.00706%.
Take `Cc1ccc(-n2nnc(-c3nc(-c4cccnc4)no3)c2N)c(C)c1`: the “% Inhibition @ 10 uM” value is given as -3.01%.
Consider `NC(=O)/C(=C\c1ccccc1)NC(=O)c1cccc(Br)c1`, for which the “% Inhibition @ 10 uM” value is recorded as -6.77%.
